Among all 310,000 compounds or so, about 14,000 (4.5%) showed an effect of 50% or more. The effect is printed as a negative number. The list shows a part of the results.
The compounds below were run against human ether-à-go-go-related gene (hERG) potassium channel (human, UniProt Q12809) (assay: primary screen, population patch clamp on CHO cells stably expressing hERG).
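Also: peak tail current of the secondary pulse compared with the same well before compound.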

human ether-à-go-go-related gene (hERG) potassium channel, sequence (Q12809 whole entry, looked up): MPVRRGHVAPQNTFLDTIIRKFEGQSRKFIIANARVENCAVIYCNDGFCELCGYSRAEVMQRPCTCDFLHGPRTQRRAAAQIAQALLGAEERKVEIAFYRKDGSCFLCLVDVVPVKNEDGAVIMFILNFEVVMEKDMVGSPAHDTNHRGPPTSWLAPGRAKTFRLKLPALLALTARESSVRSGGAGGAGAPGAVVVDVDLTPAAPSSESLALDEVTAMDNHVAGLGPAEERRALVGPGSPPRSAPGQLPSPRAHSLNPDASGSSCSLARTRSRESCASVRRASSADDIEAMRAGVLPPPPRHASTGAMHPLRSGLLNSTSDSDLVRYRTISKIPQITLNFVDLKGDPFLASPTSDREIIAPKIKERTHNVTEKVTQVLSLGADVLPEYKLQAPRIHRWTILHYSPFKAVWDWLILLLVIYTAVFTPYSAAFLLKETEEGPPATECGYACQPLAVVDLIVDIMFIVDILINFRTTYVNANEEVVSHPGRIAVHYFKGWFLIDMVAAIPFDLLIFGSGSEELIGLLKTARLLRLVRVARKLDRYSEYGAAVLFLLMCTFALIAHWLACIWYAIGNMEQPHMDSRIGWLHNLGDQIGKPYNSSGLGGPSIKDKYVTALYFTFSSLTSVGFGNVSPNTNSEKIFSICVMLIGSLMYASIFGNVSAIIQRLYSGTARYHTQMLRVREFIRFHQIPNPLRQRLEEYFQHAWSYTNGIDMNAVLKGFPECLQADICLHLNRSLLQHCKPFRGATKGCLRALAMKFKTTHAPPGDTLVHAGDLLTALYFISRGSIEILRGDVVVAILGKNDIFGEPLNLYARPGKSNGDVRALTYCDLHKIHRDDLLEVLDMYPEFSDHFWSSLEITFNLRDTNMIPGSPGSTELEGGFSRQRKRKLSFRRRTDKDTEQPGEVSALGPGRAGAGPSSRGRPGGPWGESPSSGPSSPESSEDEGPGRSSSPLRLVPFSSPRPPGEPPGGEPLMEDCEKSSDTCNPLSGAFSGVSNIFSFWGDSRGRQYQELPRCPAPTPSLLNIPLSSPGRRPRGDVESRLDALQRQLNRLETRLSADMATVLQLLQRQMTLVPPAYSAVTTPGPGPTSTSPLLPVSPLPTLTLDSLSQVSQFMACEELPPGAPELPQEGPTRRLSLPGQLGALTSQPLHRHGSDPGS

In order of rising “hERG current change (%, negative = inhibition) at 10uM” value:
1. OCCC1CN(Cc2cccn2-c2nccs2)CCN1Cc1ccc(F)c(F)c1 (stereo not shown)  -80.7%
2. CCn1cc(C(=O)NCCCN2CCCC(C)C2)c(=O)c2cc(S(=O)(=O)N(C)C3CCCCC3)ccc21 (stereo not shown)  -80.1%
3. COc1cccc(CC2(CO)CCCN(Cc3ccccc3-c3ccco3)C2)c1 (stereo not shown)  -75.8%
4. C=CCn1c(COc2ccccc2)nnc1SCc1ccc(C#N)cc1  -68.2%
5. CC1=C(C(=O)OCc2ccccc2)C(c2ccccc2-c2ccccc2)NC(=O)N1CCCCCC(=O)O (stereo not shown)  -63.1%
6. COC(=O)C1=C(c2ccc(OC(F)(F)F)cc2)C[C@@H]2CC[C@H]1N2C(=O)N1CCCCC1  -56.3%
7. CC(CCc1ccc(O)cc1)N1CCC(Oc2ccc(C(=O)N3CCCC3)cc2)CC1 (stereo not shown)  -55.7%
8. CC(C)NCCCOc1ccc(Cl)cc1Br.O=C(O)C(=O)O  -54.4%
9. CCC1CCCCN1C(=O)c1cc(COc2ccc(-n3cncn3)cc2)on1 (stereo not shown)  -48.5%
10. CCS(=O)(=O)N1CCN(Cc2ccc([N+](=O)[O-])cc2)CC1.O=C(O)C(=O)O  -44.4%
11. C/C=C/c1ccc(OCC(O)CN2CCCCC2CC)c(OC)c1 (stereo not shown)  -43.9%
12. CCC(C)(C)n1nnnc1C(c1cccnc1)N1CCN(c2cccc(C(F)(F)F)c2)CC1 (stereo not shown)  -41%
13. CCN(CC)C(=O)Cn1cc(SCC(=O)NC2CCCC2)c2ccccc21  -36.9%
14. COc1ccc(CNC(=O)CN(Cc2ccc(C)cc2)C(=O)c2csnn2)cc1  -36.1%
15. COC(=O)C1=C(C)NC2=C(C(=O)CCC2)C1c1cn(Cc2ccc(Br)cc2)nc1-c1ccccc1 (stereo not shown)  -32.3%
16. COc1ccc(NC(=O)NCCN2CCN(c3cccc(Cl)c3)CC2)cc1  -31.6%
17. O=C(CCN1CCN(S(=O)(=O)c2ccc(Br)cc2)CC1)Nc1ccccc1F  -31.2%
18. COc1cccc(NC(=O)c2ccnc(N3CCC(C(=O)NCc4ccccc4OC)CC3)c2)c1  -18.8%
19. O=C(NC(N1CCOCC1)C(Cl)(Cl)Cl)c1cc([N+](=O)[O-])cc([N+](=O)[O-])c1 (stereo not shown)  -13.8%
20. COc1cc([C@H]2[C@@H]3CCCC[C@]3(O)CCN2Cc2ccccc2F)ccc1O  -12.8%
21. COc1ccccc1-n1c(=O)c2c3c(sc2n2c(SC)nnc12)CCC3  -12.5%
22. CC1(c2nnc(-c3ccccc3)o2)CC(c2ccccc2)=NO1 (stereo not shown)  -11.6%
23. O=S(=O)(c1ccccc1)N1CCN(S(=O)(=O)c2ccccc2)C1  -11.5%
24. CC1CCC(NC(=O)CN(C)S(=O)(=O)c2cccc3cccnc23)CC1 (stereo not shown)  -10.4%
25. O=C(NC1CCCCC1)N1CCc2ccccc21  -8.44%
26. Cc1cccc(NC(=O)C2CCN(S(=O)(=O)c3c(C)noc3/C=C/c3ccco3)CC2)n1  -7.68%
27. COc1ccc2cc3cc(C(=O)N4CCN(c5ccccn5)CC4)oc3nc2c1  -6.87%
28. COc1ccc(C(=O)c2ccc(OC)c3cccc(O)c23)cc1OC  -6.79%
29. CC(=O)CSc1nc(N(C)C)nc(N(C)C)n1  -5.75%
30. CCN(CC)S(=O)(=O)c1ccc(C)c(NC(=O)COC(=O)CN2C(=O)NC(C)(C)C2=O)c1  -5.68%
31. Cc1ccc2cc3c(NC(=O)c4ccco4)nn(C)c3nc2c1  -5.62%
32. COc1ccc(N2CCN(CCNC(=O)CCS(=O)(=O)c3cccc4nsnc34)CC2)cc1  -5.54%
33. CCOc1ccccc1/C=N/Nc1ccccc1[N+](=O)[O-]  -5.13%
34. COc1ccc(-c2noc(CCCC(=O)O)n2)cc1  -3.93%
35. COc1ccc(-c2cc(-c3ccc(F)cc3)nc(N3CCN(C)CC3)n2)cc1  -3.88%
36. O=C(Nc1ccccc1N1CCCCC1)c1cccc(F)c1  -3.29%
37. COc1ccc(CNC(=O)c2cnn3c(C(F)F)cc(C)nc23)cc1  -3.22%
38. CCOC(=O)C1CCN(C(=O)C2CCN(S(=O)(=O)CC)CC2)CC1  -2.7%
39. O=S(=O)(c1ccc(Br)cc1)c1cnc2ccccc2n1  -2.37%
40. O=C(NCc1ccc(Cl)cc1)c1ccc(Cn2cc(C(F)(F)F)ccc2=O)cc1  -1.69%
41. CCOc1ccc(CCNC(=O)COC(=O)COc2ccc(C(C)=O)cc2)cc1OCC  -1.52%
42. CCn1nccc1C(=O)Nc1ccc(Cl)cc1Cl  0.258%
43. CCOCCN(C=O)c1cccc(OC)c1  1.49%
44. C/C(=N\NC(=O)C(O)c1ccccc1)c1ccc(Br)s1 (stereo not shown)  1.82%
45. Cc1cccc(C)c1NC(=O)COC(=O)c1cccc2c1C(=O)c1ccccc1C2=O  2.12%
46. COc1cc(NS(=O)(=O)c2ccc(F)cc2)c(OC)cc1NC(C)=O  2.46%
47. Cn1nc(C(=O)NC2=NCCS2)ccc1=O  2.66%
48. COc1ccc(NS(=O)(=O)c2cccc(C(=O)OCC(=O)NC3CC3)c2)cc1  3.33%
49. CCn1c(=O)cc(SCC(=O)Nc2ccc(C)cn2)c2ccccc21  4.05%
50. O=C(NN1CCOCC1)c1ccc(Cl)c([N+](=O)[O-])c1  4.8%
51. COc1ccc(CNC(=O)c2cnc(C)cn2)cc1  5.01%
52. CCc1ccccc1NS(=O)(=O)c1ccc2c(c1)NC(=O)CC(=O)N2  5.13%
53. COc1ccc(CCNC(=O)C(=O)NCC2OCCN2S(=O)(=O)c2ccccc2)cc1OC (stereo not shown)  5.8%
54. CCn1c(C)nc2cc(C(=O)NNC(=S)Nc3ccccc3Cl)ccc21  5.86%
55. COc1ccc([N+](=O)[O-])cc1N(CC(=O)NC1CCCCC1)S(C)(=O)=O  5.91%
56. CCC(=O)OCC(=O)N=c1sccn1Cc1ccccc1Cl  6.32%
57. O=C(CSc1ccc(Cl)cc1)NNC(=O)c1ccco1  7.31%
58. O=C(CN1C(=O)/C(=C/c2cccc(Br)c2)SC1=S)N1CCCC1  7.44%
59. Cc1ccc(C(C)C)cc1C(=O)CC1(O)C(=O)N(C)c2ccccc21 (stereo not shown)  7.46%
60. CC(=O)c1c(C(C)=O)c(C)n(NC(=O)c2ccncc2)c1C  8.37%
61. OC1(c2ccccc2F)CCN(Cc2nnnn2Cc2ccc(F)cc2)CC1  8.52%
62. CCOC(=O)CNC(=O)C1CCN(S(=O)(=O)c2ccc(-c3nn[nH]n3)cc2)CC1  8.58%
63. CCC(=O)NNC(=O)c1cc(COc2cc(Cl)cc(Cl)c2)on1  8.64%
64. COc1ccc(N2CCN(C(=S)Nc3cccc(C)c3C)CC2)cc1  8.84%
65. O=C(COC(=O)c1ccccc1Br)Nc1ccc(F)cc1  9.07%
66. Cc1[nH]nc(SCC(=O)NCc2ccc(F)cc2)c1[N+](=O)[O-]  9.21%
67. Cc1ccc2cc(C#N)c(NCc3ccccc3)nc2c1  9.69%
68. CC1(C)CC(=O)C2=C(C1)OC1=C(C(=O)CC(C)(C)C1)C2c1cc([N+](=O)[O-])cc([N+](=O)[O-])c1O  10.6%
69. CCCCN(CC)C(=O)c1ccc2c(c1)OCO2  10.8%
70. CC(=O)NNC(=S)NC(=O)c1cccc([N+](=O)[O-])c1  13.1%
71. Cc1onc(-c2ccccc2)c1C(=O)NCc1ccc(Cl)cc1  13.8%
72. CCC1(c2ccccc2)NC(=O)N(CC(=O)NCc2ccc(OC)cc2)C1=O (stereo not shown)  13.9%
73. O=C(CC1C(=O)NCCN1Cc1ccccc1C(F)(F)F)NC1CCCCC1 (stereo not shown)  14.6%
74. COc1ccc(-c2cc(-c3cc(C)ccc3O)[nH]n2)cc1  15.6%
75. Cc1ccc2c(c1)OC(c1ccc3c(c1)OCCO3)CC2=O (stereo not shown)  16.3%
76. CCOc1cc(/C=N\n2nnnc2N)ccc1O  16.8%
77. CNC(=O)/C(C#N)=C/c1c(N2CCN(C)CC2)nc2c(C)cccn2c1=O  17.2%
78. c1cc(CNCCc2ccc3c(c2)OCO3)ccn1  18.3%
79. O=C(CN1C(=O)CC(c2ccccc2)S(=O)(=O)c2ccccc21)N1CCOCC1 (stereo not shown)  19.1%
80. CC1(C)CC(=O)C=C(c2ccc(-c3ccccc3)cc2)C1  19.1%
81. O=c1[nH]c2ccccc2nc1/C=C(\O)c1cccs1  19.5%
82. Cc1nc2oc3ccc(F)cc3c(=O)c2cc1C(=O)NC(C)(C)C  19.6%
83. Cc1[nH]c(=S)c(C#N)c(-c2ccco2)c1C(=O)N(C)C  19.8%
84. Nc1nc(O)c(N=Nc2ccc(S(N)(=O)=O)cc2)c(=O)[nH]1  20.4%
85. CCCCC(=O)Nc1ccc(C(=O)NCCc2ccc(S(N)(=O)=O)cc2)cc1  23.2%
86. COc1cc(OC)cc(C(=O)Nc2sc3c(c2C(N)=O)CCC3)c1  25.8%
87. COc1ccc(O)c(/C=N/N=C2/C(=O)Nc3ccccc32)c1  27.8%
88. O=C(NC1CCCCCC1)c1ccc[nH]c1=S  31.1%

— paper PMC4336329 (PLoS ONE, 2015)
